Measurements reported in article PMC4336329 (PLoS ONE, 2015).
In all, about 310,000 compounds went through this assay and about 14,000 (4.5%) showed an effect of 50% or more. The effect is printed as a negative number. This is one part of the list.

Molecular target: human ether-à-go-go-related gene (hERG) potassium channel (human, UniProt Q12809)
Assay: primary screen, population patch clamp on CHO cells stably expressing hERG
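Note: peak tail current of the secondary pulse compared with the same well before compound.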

human ether-à-go-go-related gene (hERG) potassium channel, sequence (Q12809 whole entry, looked up): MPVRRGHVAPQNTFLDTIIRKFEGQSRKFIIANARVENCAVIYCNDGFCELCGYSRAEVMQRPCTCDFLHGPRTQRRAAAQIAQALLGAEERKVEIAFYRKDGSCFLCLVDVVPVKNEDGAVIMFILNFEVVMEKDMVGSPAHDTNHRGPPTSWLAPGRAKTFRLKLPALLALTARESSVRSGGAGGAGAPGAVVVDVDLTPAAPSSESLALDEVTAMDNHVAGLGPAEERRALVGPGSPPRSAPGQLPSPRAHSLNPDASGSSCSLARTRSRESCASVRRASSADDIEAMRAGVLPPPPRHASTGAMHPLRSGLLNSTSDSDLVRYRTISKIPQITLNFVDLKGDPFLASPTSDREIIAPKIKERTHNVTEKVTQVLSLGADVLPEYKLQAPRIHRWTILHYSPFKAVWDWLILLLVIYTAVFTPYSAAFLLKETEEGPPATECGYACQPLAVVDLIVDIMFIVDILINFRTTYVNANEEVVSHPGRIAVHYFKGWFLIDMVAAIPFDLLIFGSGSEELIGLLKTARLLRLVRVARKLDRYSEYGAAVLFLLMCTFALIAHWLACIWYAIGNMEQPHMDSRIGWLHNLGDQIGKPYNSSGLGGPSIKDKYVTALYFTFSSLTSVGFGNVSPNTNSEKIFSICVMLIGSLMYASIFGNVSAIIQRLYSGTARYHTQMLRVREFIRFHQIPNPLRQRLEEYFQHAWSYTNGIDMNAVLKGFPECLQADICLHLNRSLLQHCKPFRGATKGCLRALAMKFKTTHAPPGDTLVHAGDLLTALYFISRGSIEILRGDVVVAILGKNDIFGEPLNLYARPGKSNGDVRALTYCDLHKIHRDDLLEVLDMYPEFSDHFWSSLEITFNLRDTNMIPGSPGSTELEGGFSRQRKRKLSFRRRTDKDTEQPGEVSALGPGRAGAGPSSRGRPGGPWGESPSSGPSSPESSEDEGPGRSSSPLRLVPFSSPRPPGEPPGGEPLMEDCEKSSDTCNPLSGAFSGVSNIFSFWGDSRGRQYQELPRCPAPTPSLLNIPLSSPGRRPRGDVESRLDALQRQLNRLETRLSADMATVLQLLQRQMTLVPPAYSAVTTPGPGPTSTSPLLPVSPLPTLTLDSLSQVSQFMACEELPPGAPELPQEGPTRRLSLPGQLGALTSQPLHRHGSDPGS

SMILES | hERG current change (%, negative = inhibition) at 10uM [%]
O=c1[nH]c(=S)[nH]c2sc3c(c12)CCCCCC3 | 20.1
N#Cc1ccc(-c2csc(NNC(=O)c3ccccc3)n2)cc1 | 0.0899
COc1ccc(-c2ccc(CNCc3ccccn3)o2)cc1Cl.Cl | -7.77
CC1CCN(S(=O)(=O)c2ccc(-c3nnc(SCc4cccnc4)o3)cc2)CC1 | 7.2
Cc1cc(C)c(C#N)c(SCCN2CCOCC2)n1 | 11
Cc1ccc(S(=O)(=O)N2CCCCC2)cc1C(=O)Nc1ccc(N2CCOCC2)cc1 | 3.62
O=C(CSc1nc2ncc(Cl)cc2[nH]1)NC1CCS(=O)(=O)C1 (stereo not drawn) | 32.4
O=S(=O)(Nc1ccc(-c2csc(-c3ccccc3)n2)cc1)c1ccc(F)cc1 | 11.3
O=C(COc1ccc([N+](=O)[O-])cc1)Nc1ccc(S(=O)(=O)N2CCOCC2)cc1 | -53.8
CCOC(=O)N1CCN(C(=O)COc2cccc3c2CCN(Cc2cccc(C)c2)C3=O)CC1 | -53.6
Cc1ccc(S(=O)(=O)CC(O)COc2ccc(C#N)cc2)cc1 (stereo not drawn) | -37.6
N#Cc1ccc(-c2cn3c(n2)SCC3)cc1 | -1.01
CCN(Cc1ccccc1)S(=O)(=O)c1ccc(S(=O)(=O)N2CCN(CCC#N)CC2)cc1 | 5.99
CCc1cccc2c(SC(C)C(=O)NCC3CCCO3)nc(-c3ccccc3)nc12 (stereo not drawn) | 7.04
CCCc1nnc(SCC(=O)N(CC)CC)n1CC1CCCO1 (stereo not drawn) | 21.9
Cc1cc(CN2C(=O)c3ccccc3C2=O)cc(N2CCOCC2)c1 | -18.9
Cc1ccc(Nc2cc(C)nc(NCc3ccccc3)n2)cc1 | -5.08
NNC(=O)c1nn(-c2ccc(Cl)cc2)ccc1=O | -14.2
O=C1NN=C(c2ccc(Cl)cc2)CC1c1c[nH]c2ccccc12 (stereo not drawn) | 45.6
COc1ccc(C)cc1NC(=O)c1ccc2c(c1)OCO2 | -3.35
Cc1cc2c(c(=O)n1C)C(C(C)C)C(C#N)=C(N)O2 (stereo not drawn) | 8.61
Cc1[nH]nc2c1C1(CCOCC1)C(C#N)=C(N)O2 | -56.7

SMILES | hERG current change (%, negative = inhibition) at 10uM [%]
Cc1cc(NC(=O)CSc2nc3ccsc3c(=O)n2CCCC(=O)NCCc2ccccc2)no1 | -1.03
CCC(=O)c1cn(Cc2ccccc2C#N)c2ccccc12 | -24.2
Cc1c(C2(O)CCCCC2)[nH]c2ncccc12 | 2.95
O=C(O)c1ccc(/C=N/NC(=O)c2cc3c(ccc4ccccc43)o2)cc1 | -0.13
CCOC(=O)c1ccc(NC(=S)NNC(=O)c2cc(-c3cccnc3)nc3ccccc23)cc1 | 20.9
O=C1c2ccccc2C(Nc2ccc(Cl)cc2)N1CCN1CCOCC1 (stereo not drawn) | -24.7
CSc1n[nH]c(NC(=O)c2c(-c3c(Cl)cccc3Cl)noc2C)n1 | 2.84
O=C(NCCc1ccc(Cl)cc1)c1nnc(Cc2ccc(Cl)cc2)o1 | 10.1
CC(=O)N(CCC(Cc1ccccc1)c1ccco1)Cc1ccco1 (stereo not drawn) | -28.4
Cc1cccc2[nH]c(CN(C)C(=O)CC3C(=O)NCCN3CC(C)(C)C)nc12 (stereo not drawn) | 3.23
N=c1nc(-c2ccccc2)ccn1O | 11.9
O=C(Nc1ccc(Cl)cc1)N1CCC(c2ccccc2)C1 (stereo not drawn) | -36.5
COc1cccc(NC(=O)CN2C(=O)NC(C)(c3ccc(C)cc3)C2=O)c1 (stereo not drawn) | -6.71
CCOc1cc(NC(=S)NCc2ccco2)c(OCC)cc1NC(=O)C1CC1 | 7.87
COc1ccc(N(CC(=O)Nc2cccnc2)S(C)(=O)=O)cc1 | -19.6
CCN(CC(=O)Nc1ccc(NC(C)=O)cc1)C(=O)/C=C/c1ccccc1 | -4.49
CCOC(=O)C1=C(COC(=O)c2ccc([N+](=O)[O-])o2)NC(=O)NC1C (stereo not drawn) | -7.36
C=CCn1c(O)c(N=NC(=S)Nc2ccccc2F)c2cc(S(=O)(=O)N3CCOCC3)ccc21 | 13.3
Cc1ccc(C)c(SCC(=O)Nc2nnc(-c3ccccc3)o2)c1 | 14.1
CCN(C(=O)COC(=O)c1c2c(nc3ccccc13)/C(=C/c1ccccc1)CC(C)C2)C1CCS(=O)(=O)C1 (stereo not drawn) | -0.31
CCOc1ccc(S(=O)(=O)Nc2ccc(C(=O)NNC(=O)c3ccncc3)cc2)cc1 | 10.3
O=C(/C=C/c1cccs1)N1CCN(c2ccc(O)cc2)CC1 | -16.9

SMILES | hERG current change (%, negative = inhibition) at 10uM [%]
CCCc1nnc(NC(=O)CCC(=O)NCCc2ccc(Cl)cc2)s1 | -1.96
CCCCOc1ccc(N(CC(=O)NC2CCCC2)C(=O)CCC(=O)Nc2ccccn2)cc1 | 17.3
COc1cc2[nH]c(=S)nc(NCC3CCCO3)c2cc1OC (stereo not drawn) | 1.17
O=C(CN1C(=O)NC2(CCCCC2)C1=O)Oc1ccc2c(C(F)(F)F)cc(=O)oc2c1 | 13.8
CCC(C)NCCOCCOc1ccc(C)cc1OC.O=C(O)C(=O)O (stereo not drawn) | -1.59
COc1cccc(N/C(SC)=C(/C#N)C(=O)NCc2cccs2)c1 | -7.85
COc1ccc(N2CCN(CCCNC(=O)CCC(=O)N3CCOc4ccc(Cl)cc43)CC2)cc1 | -70.4
C=CCn1c(O)c(N=NC(=O)CNC(=O)/C=C/c2ccco2)c2ccccc21 | -58.2
Cc1ccc2c(C)c(C(=O)N(Cc3cccs3)C3CCS(=O)(=O)C3)oc2c1 (stereo not drawn) | -20.8
O=C(NC1CCCCCCC1)c1ccc(F)cc1 | 4.61
COc1ccc(CCC(=O)NCCOc2ccc(C)cc2)cc1 | 2.1
CC1CCCN(C(=O)CN2C(=O)C(C)Oc3ccccc32)C1 (stereo not drawn) | 8.2
O=C(CCNC(=O)c1ccccc1Cl)NCC12CC3CC(CC(C3)C1)C2 | 6.76
Cc1ccc([C@@H]2[C@@H]3C(=O)N(C)C(=O)[C@@H]3[C@]3(C)C(=O)N(CCO)CC(=O)N23)o1 | -23.6
CCOC(=O)Cn1nc(/C=C/c2ccc(C(C)C)cc2)ccc1=O | -39.4
O=C(Cn1c(=O)n(Cc2ccco2)c(=O)c2cc(Cl)ccc21)NCC1CCCO1 (stereo not drawn) | -31.9
CCc1ccccc1NC(=O)CCC(=O)N1CCSc2ccccc21 | -14.7
NC(N)=NCCC[C@H](NC(=O)OCc1ccccc1)C(=O)O | 24.5
CCOc1ccccc1NC(=O)CN1C(=O)CSC(C)C1=O (stereo not drawn) | 18.7
COc1ccccc1N1CCN(C(=O)CSc2nnc3n2C(C)(C)Cc2ccccc2-3)CC1 | -37.4
COC(=O)Cn1c(=NC(=O)CCS(=O)(=O)c2ccccc2)sc2c(OC)ccc(OC)c21 | 6.2
CN1CCN(/N=C/c2c(O)n(Cc3ccc(F)cc3)c(=O)[nH]c2=O)CC1 | 0.78

SMILES | hERG current change (%, negative = inhibition) at 10uM [%]
CCSc1nnc(NC(=O)CSc2ncccn2)s1 | -1.13
CC(C)c1ccc(/C=C2\SC(=O)N(CC(=O)NC3C=CS(=O)(=O)C3)C2=O)cc1 (stereo not drawn) | 5.89
Cc1cnc(C(=O)OCC(=O)N(C(C)C)C(C)C)cn1 | 24
O=C(NC1(C(F)(F)F)C(=O)Nc2c1c(=O)[nH]c(=O)n2-c1ccc(F)cc1)c1cccnc1 (stereo not drawn) | 16.9
Cc1ccc(S(=O)(=O)C2(C(=O)NCc3ccc4c(c3)OCO4)CC2)cc1 | -7.05
COc1cc([N+](=O)[O-])ccc1NC(=O)NNC(=O)c1sccc1C | 2.32
Cc1ccc(-n2ccc(=O)c(C(=O)Nc3ccc(S(=O)(=O)Nc4nccs4)cc3)n2)cc1 | 16.4
Cc1ccc(Cl)cc1N1CCN(C(=O)CCC(=O)O)CC1 | 15.1
Brc1ccccc1-n1nnc(-c2cccnc2)n1 | -9.54
CCOC(=O)Cc1csc(NC(=O)CSc2nc3sc(C(=O)O)c(C)c3c(=O)[nH]2)n1 | -33.9
CCOc1ccc(CN2CCC(=O)NC2=O)cc1 | -5.71
O=C(Nc1cc(C(F)(F)F)ccc1N1CCCC1)c1ccc2c(c1)OCO2 | 3.46
CCCCN(C)CCC(=O)Nc1ccc(C)cc1.Cl | -14.8
CCOC(=O)CNc1ccc2c(c1)OCO2 | 14.1
CC(C)(C)c1cc(P(=O)(c2ccccc2)c2ccccc2)ccc1O | 6.08
CCOC(=O)c1c(NC(=O)CCNCc2ccco2)sc2c1CCC2.O=C(O)C(=O)O | -23.5
CC(C)OC(=O)c1cc2c(ccn2C)n1CC(=O)N1CCC(Cc2ccccc2)CC1 | -1.62
COCc1ccc(C(=O)N2CCN(CC(=O)N3CCCC3)CC2)cc1 | -16.5
COc1ccc(C(=O)NCc2cccnc2)cc1S(=O)(=O)N1CCCc2ccccc21 | -26.3
CC(=O)OCC(OC(C)=O)C(OC(C)=O)C(OC(C)=O)C(=O)Nc1cccc(C)c1 (stereo not drawn) | 26.9
Cc1n[nH]c(C)c1S(=O)(=O)N1CCCC(C(=O)NCc2ccc(F)cc2)C1 (stereo not drawn) | 21.7
